Results as given in the supplement of paper PMC11417369.
± gives the standard deviation of the averaged measurements. The list shows a part of the results.

System: PfAP2-G AP2 domain (GST-tagged)
Experiment: gcPBM binding intensity (ln(normalized median fluorescence intensity)); higher = stronger DNA binding
Procedure, shortened: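 The highest Masliner-normalised natural-log median intensity across replicate spots of either probe orientation is reported as binding intensity. GST-tagged P. falciparum DNA-binding domains expressed in E. coli were applied for 1 h to an Agilent 4 × 180k array of primer-extended double-stranded 36-bp intergenic genomic probes plus negative controls, and bound protein was detected with Alexa488 anti-GST antibody and scanned at 488 nm.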

Row | Sequence | gcPBM binding intensity (ln)
1 | TTTAATTTTCGGTGTGCACACAACTATGAGTTTTTA [CACACA_site3034] | 10.7 ± 0.42
2 | TTAATAATTAATTATAGTACACATTTATATTAATAA [XGTACX_site190] | 11.3 ± 0.95
3 | TTATTTAAAAAATTTTTAAATATACAAAAAAAAAAA [TGCATGCA_negctrl_site464] | 9.81 ± 0.13
4 | ATTATAAGAAGGGGGGGTACATAAATATAAATGTAT [XGTACX_site5624] | 11.9 ± 0.95
5 | TTTAAAAAAAAAAATACACACATAAAAATTTTCAAA [CACACA_site703] | 9.9 ± 0.085
6 | AGGATTAAAAAAACATGTACGTATTTAAATATATTT [XGTACX_site8774] | 11.4 ± 0.81
7 | TACTGGTATCGATATAGTACATATAATATTATGTTA [XGTACX_site7490] | 11.1 ± 0.69
8 | AATTGAATAAATTAAACATGCACAGATGTTCTATTT [TGCATGCA_site692] | 9.63 ± 0.25
9 | AAATAAAAAATATGAACACACATATATAACAAAATA [CACACA_site261] | 9.95 ± 0.12
10 | GTATAAAAAAATAAAAGTACAAAAAAAAAAGACTGA [XGTACX_site186] | 11.4 ± 0.77
11 | TTTTTTTTTTTTTTTTTTTTTTTTTTTTTTTTTTTT [CACACA_negctrl_site104] | 11.2 ± 0.69
12 | ATATATTTATTTTGTGCACACAACGCAAACCTTTTA [CACACA_site3508] | 10.5 ± 0.27
13 | ATTTTTTCTTTTCGATGTACCCTTCTTATTCTTTAT [XGTACX_site3782] | 11.1 ± 0.72
14 | TATATCGCCTTCAAAAGTACTCATATAAAAAAAAAA [XGTACX_site7123] | 11.2 ± 0.86
15 | TTTATTTTTCATTGGGGTACACAAGTTTATTTTTGA [XGTACX_site4262] | 11.7 ± 0.86
16 | ATATCGTTTTTAAATTGTACATTCACTATAGAATAA [XGTACX_site6442] | 10.9 ± 0.56
17 | TTCTTTGTTTTTTTTTTTTTTTTAAAAGATAATATT [XGTACX_negctrl_site381] | 9.81 ± 0.33
18 | AAAAAAAAAAAAAAATGTACTTTTATTATTAATATA [XGTACX_site6357] | 11.1 ± 0.71
19 | AGTTCATATTTAAAAAGTACATATTTAAAAACTTCT [XGTACX_site4882] | 11.4 ± 0.88
20 | TTTGAACTTTTATATACACACATTATTATAGTATAG [CACACA_site6851] | 10.04 ± 0.071
21 | TTTTTGTATGCTTCCCGACTACATTATGTCGTAAAT [GTGCAC_negctrl_site164] | 10.22 ± 0.092
22 | AACAAAGAGAAATAAACACACACAAAATAAAGAAAA [CACACA_site8704] | 9.81 ± 0.13

Row | Sequence | gcPBM binding intensity (ln)
23 | ATTAATTAAAATAGTTGTACAATCAAAAAAACAAAA [XGTACX_site7660] | 11.4 ± 0.87
24 | GATATTACGTGTTTGGTATTTTTTGATGTTAATAGG [CACACA_negctrl_site105] | 10.21 ± 0.064
25 | TATAAAATAATTAAATGTACATAATATATAAAATAT [XGTACX_site6777] | 11.1 ± 0.35
26 | TTATAAATATTCACTGTGCACTGATGGAATATAAAT [GTGCAC_site9739] | 10.3 ± 0.33
27 | AGAATATATAAGTATACACACATATATATATATATA [CACACA_site201] | 10.1 ± 0.36
28 | ATATCGAAAATTTGGTGTACATTTTTATTTGTTCAA [XGTACX_site3094] | 11.5 ± 0.93
29 | ATTTAAATAATATGTACACACATTTAAAAAGTTATA [CACACA_site7347] | 11.6 ± 0.94
30 | TAATATTTCGTTAAGTTTTAAAGAAAAAAAAAAAAA [CACACA_negctrl_site1253] | 9.71 ± 0.43
31 | AAATTAAATGATAGAGCATGCGCTAAAAATGAGAAA [TGCATGCA_site937] | 9.66 ± 0.19
32 | ACACATATAATAGTTACATGCAAAAATACTTTTATT [TGCATGCA_site785] | 9.99 ± 0.085
33 | TTTTTATAACATAAAAGTACATATTTTTAATTTAAT [XGTACX_site4394] | 11.1 ± 0.81
34 | CATTCTACAATAAAAAGTACATATATATATTATATA [XGTACX_site921] | 11.4 ± 0.93
35 | TCAAAAAAAATTTTAGTGCATATTTTAGTCAAAACA | 9.98 ± 0.18
36 | TTTTGCAAATATTACTGTACACAATCTCATATAATT [XGTACX_site2584] | 11.4 ± 0.76
37 | TTTTCAGAAAGACATGCATACAAAAATAAAAAAGAT [TGCATGCA_site814] | 10.2 ± 0.12
38 | AAATTAAAAATAATTACACACATAGAAAAGTTATAT [CACACA_site7137] | 9.79 ± 0.13
39 | TTATAGTAATAATAATGTACATTTATACACATATAT [XGTACX_site1965] | 10.9 ± 0.47
40 | ATATATATATATATAACATGCAAAGTTCAAAAAAAA [TGCATGCA_site943] | 10 ± 0.13
41 | AAAAAAAACAGACACACACACACATATACATACATA [CACACA_site2665] | 10.01 ± 0.014
42 | ACCCAAGAGAAAAGAGAAAGAAATATGTGTATATTG [GTGCAC_negctrl_site214] | 9.92 ± 0.042
43 | TTTTTTTTATTATAAATATATATATTATAAAACGAA [XGTACX_negctrl_site189] | 10.1 ± 0.38
44 | AGTATTATTTACTGCGCATGCTATTTATATATATTA [TGCATGCA_site876] | 9.8 ± 0.042

Row | Sequence | gcPBM binding intensity (ln)
45 | AATAGAAATTATATAAACATAAATGAATAAATAAAT [CACACA_negctrl_site1817] | 9.54 ± 0.16
46 | ACCATATATTAAAAAGTGCATTAAATATATAAATAT [GTGCAC_site9443] | 10 ± 0.11
47 | AAAAAAAAAAAAAAAGCACACATCATATTTTAATTC [CACACA_site9109] | 10.16 ± 0.092
48 | ACACAAAAATGAAAAATGAAAAGGGTAATATATATA [CACACA_negctrl_site1490] | 9.85 ± 0.16
49 | ATTTTATTTAAATACACACACATATATATATTATAT [CACACA_site4607] | 10.1 ± 0.2
50 | CACAGACACCCATACACACACATACCCATATATATA [CACACA_site5023] | 10.4 ± 0.26
51 | CTACATATGTATAATATGCACACGTCATTTTCCCCT [CACACA_site2107] | 10.2 ± 0.099
52 | AATTATCAGGAATGATGTACTGAAATAAAAAAAAAA [XGTACX_site3280] | 11 ± 0.71
53 | ATACTGTATAGTCGCACACAAAAATATAAAATATTT [CACACA_site6004] | 10.4 ± 0.37
54 | TTACACAAGGATAAAAACATATGTATGATTATATAT [CACACA_negctrl_site654] | 9.85 ± 0.23
55 | AAAATTTGAAAAAGGGGTACTTAATAAAAGTTTCAT [XGTACX_site932] | 11.3 ± 0.89
56 | TAATAAATCAAATGCACACACACAAAAAAAAAAAAA [CACACA_site161] | 10 ± 0.49
57 | TTTTTATTTTTTTATGCATGTGATGAAACGTGCCTA [TGCATGCA_site141] | 9.93
58 | AAACAAATAAAAATATGTACACATTTTTTCATTATG [XGTACX_site5449] | 11.4 ± 0.68
59 | AAAATATTAAATATGTGTACATATAATAGTTCAATG [XGTACX_site5957] | 11.3 ± 0.91
60 | TTAAAAGAAAATAGGTGTACACATAATATATACATA [XGTACX_site7697] | 11.8 ± 1
61 | TTTTTAATCATAATATGTACATATAAAAATGGTTTG [XGTACX_site3996] | 11.1 ± 0.67
62 | AATATGTCTTAAAAAAGTACATAAATTTTAACTTCA [XGTACX_site6670] | 11.4 ± 1
63 | AACAATTAGAATAACGCATGCATTTATAATATAGAA [TGCATGCA_site595] | 9.72 ± 0.28
64 | TGTGTATATATAAATACACACCAAATGTTAATATAT [CACACA_site8501] | 10.025 ± 0.007
65 | ATAATTAACAAATACACACACACACCCAGACAAAAA [CACACA_site4445] | 10.4 ± 0.52
66 | ACTTTTTGAATGTTTGCACACAAATCTCATAATTTT [CACACA_site358] | 10.2 ± 0.16

Row | Sequence | gcPBM binding intensity (ln)
67 | ACATAGATCATAGGTTGTACGAAGGTATCCTTTATT [XGTACX_site694] | 10.8 ± 0.45
68 | TCATATATATATATATGTACATATTTATGTATGTAT [XGTACX_site6291] | 11.1 ± 0.66
69 | CATACCTATAGACACACACACACACGCACGCACAAA [CACACA_site6374] | 10.4 ± 0.34
70 | TTTTGTAATGCTTTTTTTTTTTTTTTTTTTTTTTTT [CACACA_negctrl_site932] | 11 ± 0.57
71 | AAAAGGAGCAAATACAAAAAAATGAACAAAAAAAAA [CACACA_negctrl_site716] | 9.96 ± 0.042
72 | TTTTTCTTTGAATAAATACACACGAGAAATGAAAGT [CACACA_site1688] | 10.6 ± 0.44
73 | ATATAATGAAGTGAATGTACATATAAAATGTAAAAA [XGTACX_site8052] | 11.1 ± 0.43
74 | TTTTTATAAATAATAAGGCGTATGAAAATAAAATAA [TGCATGCA_negctrl_site421] | 10.4 ± 0.33
75 | TCAAAATATCCAAAAGAATAAAGAAAAAAAAAAAGA [CACACA_negctrl_site1377] | 9.65 ± 0.26
76 | ATATAACATTGTTTTGCATGTAAATATTCAATTTTT [TGCATGCA_site758] | 9.84 ± 0.099
77 | TCAAATTTAATCATAACACACATTCACATATGAATT [CACACA_site3199] | 9.7 ± 0.028
78 | ATTGTATAAAAATGTACATGCAATAAATTTAGTTCT [TGCATGCA_site675] | 11.1 ± 0.63
79 | TAAAGCAACTGAAACACACAAATTTTTTTTTTTTTT [CACACA_site7499] | 9.645 ± 0.064
80 | AAACTGAAAAAAATATGTACATATTTATATCTTATA [XGTACX_site3011] | 11.4 ± 0.88
81 | AAAAAAAAAAAACACACACACAAATACAAATACATA [CACACA_site415] | 9.97 ± 0.33
82 | GAAACGTTTTTTCAGTGTACATTTTACCGATTTGTA [XGTACX_site8249] | 11.2 ± 0.7
83 | TAGTATAATATATATTGTACGTTTTAATTGTTTATA [XGTACX_site2731] | 11 ± 0.79
84 | GAGTTTATATTTTAAGCATGCATATGTTATTATTAT [TGCATGCA_site1049] | 9.83 ± 0.085
85 | TATATCAAAAACGAGACATGCATGCCGTTCATTTTG [TGCATGCA_site211] | 9.52 ± 0.42
86 | ATTGTTTCATTAAAATGTACATAAATTGTGTATAAT [XGTACX_site5341] | 11.2 ± 0.7
87 | TTATTAACGGAACTCTGTACTTAAAAAATTTTAGAA [XGTACX_site8787] | 11.3 ± 0.99
88 | TATATAAGAATATATACACACATATCTGTATTTATA [CACACA_site5231] | 9.79
